Data published in article PMC9911399, “Two distinct binding modes provide the RNA-binding protein RbFox with extraordinary sequence specificity”.
Substitutions are numbered along the chain they refer to; changes in the protein carry UniProt numbers. The list shows a part of the results.

T1: RBFOX1 RRM (Homo sapiens, UniProt Q9NWB1 109-208)
T1 sequence: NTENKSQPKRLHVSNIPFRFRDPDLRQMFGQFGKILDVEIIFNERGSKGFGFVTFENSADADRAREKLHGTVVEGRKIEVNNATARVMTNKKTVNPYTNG

B1: AUCUACG (DNA:RNA)
RNA: GGGAGACCGGAAUUCAGAUUGUCCAUCUACGUUAAAUCCCGUCGUAGCCACCA
DNA 1: CAATCTGAATTCCGGTCTCCC
DNA 2: TGGTGGCTACGACGGGATT
B2: AUGCUUG (DNA:RNA)
RNA: B1 RNA with C27G, U28C, A29U, C30U
DNA 1: CAATCTGAATTCCGGTCTCCC
DNA 2: TGGTGGCTACGACGGGATT
B3: CGAUGGU (DNA:RNA)
RNA: B1 RNA with A25C, U26G, C27A, A29G, C30G, G31U
DNA 1: CAATCTGAATTCCGGTCTCCC
DNA 2: TGGTGGCTACGACGGGATT
B4: UCACUUA (DNA:RNA)
RNA: GGGAGACCGGAAUUCAGAUUGUCCUCACUUAUUAAAUCCCGUCGUAGCCACCA
DNA 1: CAATCTGAATTCCGGTCTCCC
DNA 2: TGGTGGCTACGACGGGATT
B5: CUAAGCA (DNA:RNA)
RNA: B1 RNA with A25C, C27A, U28A, A29G, G31A
DNA 1: CAATCTGAATTCCGGTCTCCC
DNA 2: TGGTGGCTACGACGGGATT
B6: ACAAAAU (DNA:RNA)
RNA: B1 RNA with U26C, C27A, U28A, C30A, G31U
DNA 1: CAATCTGAATTCCGGTCTCCC
DNA 2: TGGTGGCTACGACGGGATT
B7: UGGAGGC (DNA:RNA)
RNA: B4 RNA with C26G, A27G, C28A, U29G, U30G, A31C
DNA 1: CAATCTGAATTCCGGTCTCCC
DNA 2: TGGTGGCTACGACGGGATT
B8: GUCGUGG (DNA:RNA)
RNA: B1 RNA with A25G, U28G, A29U, C30G
DNA 1: CAATCTGAATTCCGGTCTCCC
DNA 2: TGGTGGCTACGACGGGATT
B9: UCACCCU (DNA:RNA)
RNA: B4 RNA with U29C, U30C, A31U
DNA 1: CAATCTGAATTCCGGTCTCCC
DNA 2: TGGTGGCTACGACGGGATT
B10: UGCGCGG (DNA:RNA)
RNA: B1 RNA with A25U, U26G, U28G, A29C, C30G
DNA 1: CAATCTGAATTCCGGTCTCCC
DNA 2: TGGTGGCTACGACGGGATT
B11: ACUUCUC (DNA:RNA)
RNA: B1 RNA with U26C, C27U, A29C, C30U, G31C
DNA 1: CAATCTGAATTCCGGTCTCCC
DNA 2: TGGTGGCTACGACGGGATT
B12: CCGGAGA (DNA:RNA)
RNA: B4 RNA with U25C, A27G, C28G, U29A, U30G
DNA 1: CAATCTGAATTCCGGTCTCCC
DNA 2: TGGTGGCTACGACGGGATT
B13: GGGGUGG (DNA:RNA)
RNA: B1 RNA with A25G, U26G, C27G, U28G, A29U, C30G
DNA 1: CAATCTGAATTCCGGTCTCCC
DNA 2: TGGTGGCTACGACGGGATT
B14: CAUCCAU (DNA:RNA)
RNA: B4 RNA with U25C, C26A, A27U, U29C, U30A, A31U
DNA 1: CAATCTGAATTCCGGTCTCCC
DNA 2: TGGTGGCTACGACGGGATT
B15: GCACGGG (DNA:RNA)
RNA: B4 RNA with U25G, U29G, U30G, A31G
DNA 1: CAATCTGAATTCCGGTCTCCC
DNA 2: TGGTGGCTACGACGGGATT
B16: AGACAUG (DNA:RNA)
RNA: B1 RNA with U26G, C27A, U28C, C30U
DNA 1: CAATCTGAATTCCGGTCTCCC
DNA 2: TGGTGGCTACGACGGGATT
B17: GGGCAUC (DNA:RNA)
RNA: B4 RNA with U25G, C26G, A27G, U29A, A31C
DNA 1: CAATCTGAATTCCGGTCTCCC
DNA 2: TGGTGGCTACGACGGGATT
B18: CGCGUAG (DNA:RNA)
RNA: B1 RNA with A25C, U26G, U28G, A29U, C30A
DNA 1: CAATCTGAATTCCGGTCTCCC
DNA 2: TGGTGGCTACGACGGGATT
B19: UUAGAAU (DNA:RNA)
RNA: B1 RNA with A25U, C27A, U28G, C30A, G31U
DNA 1: CAATCTGAATTCCGGTCTCCC
DNA 2: TGGTGGCTACGACGGGATT
B20: GGGAAUC (DNA:RNA)
RNA: B1 RNA with A25G, U26G, C27G, U28A, C30U, G31C
DNA 1: CAATCTGAATTCCGGTCTCCC
DNA 2: TGGTGGCTACGACGGGATT
B21: AACGGAG (DNA:RNA)
RNA: B1 RNA with U26A, U28G, A29G, C30A
DNA 1: CAATCTGAATTCCGGTCTCCC
DNA 2: TGGTGGCTACGACGGGATT
B22: UGUCCUC (DNA:RNA)
RNA: B4 RNA with C26G, A27U, U29C, A31C
DNA 1: CAATCTGAATTCCGGTCTCCC
DNA 2: TGGTGGCTACGACGGGATT
B23: CGCAAUU (DNA:RNA)
RNA: B1 RNA with A25C, U26G, U28A, C30U, G31U
DNA 1: CAATCTGAATTCCGGTCTCCC
DNA 2: TGGTGGCTACGACGGGATT
B24: CGUCUGC (DNA:RNA)
RNA: B4 RNA with U25C, C26G, A27U, U30G, A31C
DNA 1: CAATCTGAATTCCGGTCTCCC
DNA 2: TGGTGGCTACGACGGGATT
B25: GUUUAAG (DNA:RNA)
RNA: B1 RNA with A25G, C27U, C30A
DNA 1: CAATCTGAATTCCGGTCTCCC
DNA 2: TGGTGGCTACGACGGGATT
B26: AACAAAG (DNA:RNA)
RNA: B1 RNA with U26A, U28A, C30A
DNA 1: CAATCTGAATTCCGGTCTCCC
DNA 2: TGGTGGCTACGACGGGATT
B27: UUGCCUG (DNA:RNA)
RNA: B4 RNA with C26U, A27G, U29C, A31G
DNA 1: CAATCTGAATTCCGGTCTCCC
DNA 2: TGGTGGCTACGACGGGATT
B28: UAAUGAU (DNA:RNA)
RNA: B4 RNA with C26A, C28U, U29G, U30A, A31U
DNA 1: CAATCTGAATTCCGGTCTCCC
DNA 2: TGGTGGCTACGACGGGATT
B29: GAUCAGU (DNA:RNA)
RNA: B1 RNA with A25G, U26A, C27U, U28C, C30G, G31U
DNA 1: CAATCTGAATTCCGGTCTCCC
DNA 2: TGGTGGCTACGACGGGATT
B30: UACAACG (DNA:RNA)
RNA: B1 RNA with A25U, U26A, U28A
DNA 1: CAATCTGAATTCCGGTCTCCC
DNA 2: TGGTGGCTACGACGGGATT
B31: CGUCCGG (DNA:RNA)
RNA: B1 RNA with A25C, U26G, C27U, U28C, A29C, C30G
DNA 1: CAATCTGAATTCCGGTCTCCC
DNA 2: TGGTGGCTACGACGGGATT

Each binder was assayed against T1, RBFOX1 RRM (assay: EMSA; HiTS-Eq, 1 nM pool, 10 min; buffer printed only for the single-RNA assays: 10 mM Tris pH 7.5, 150 mM NaCl, 3.4 mM EDTA, 0.001% NP-40, 30 C). Conditions: tags: His6 N-terminal (pET28a); label: 5' 32P.
Procedure, shortened: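 Purified RbFox RRM, wild type or mutant, was incubated for 10 min in 50 µL with 1 nM of a 5′-radiolabelled RNA pool carrying 7 randomized nucleotides, whose flanks were annealed to DNA oligonucleotides, over a series of increasing protein concentrations. Unbound RNA was resolved on 8% native PAGE, cut out, reverse-transcribed, barcoded by PCR and sequenced on an Illumina HiSeq 2500. Relative association constants were derived from changes in read counts for each RNA species versus the control reaction and normalised to the cognate motif.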
In the case of B1, the binding signal is reported as 0.00357 KA relative to UGCAUGU.
In the case of B2, the binding signal is reported as 0.0339 KA relative to UGCAUGU.
With B3 the binding signal was 0.0162 KA relative to UGCAUGU.
In the case of B4, the binding signal is reported as 0.000884 KA relative to UGCAUGU.
For B5, the binding signal was 0.00722 KA relative to UGCAUGU.
With B6 the binding signal was 0.000999 KA relative to UGCAUGU.
In the case of B7, the binding signal is reported as 0.0186 KA relative to UGCAUGU.
B8 was tested, and the binding signal was 0.0185 KA relative to UGCAUGU.
B9 was tested, and the binding signal was 0.0019 KA relative to UGCAUGU.
In the case of B10, the binding signal is reported as 0.0258 KA relative to UGCAUGU.
B11 was tested, and the binding signal was 0.00885 KA relative to UGCAUGU.
In the case of B12, the binding signal is reported as 0.0106 KA relative to UGCAUGU.
With B13 the binding signal was 0.0333 KA relative to UGCAUGU.
For B14, the binding signal was 0.000182 KA relative to UGCAUGU.
B15 was tested, and the binding signal was 0.0204 KA relative to UGCAUGU.
For B16, the binding signal was 0.0099 KA relative to UGCAUGU.
With B17 the binding signal was 0.0179 KA relative to UGCAUGU.
With B18 the binding signal was 0.0133 KA relative to UGCAUGU.
B19 was tested, and the binding signal was 0.00773 KA relative to UGCAUGU.
For B20, the binding signal was 0.0328 KA relative to UGCAUGU.
For B21, the binding signal was 0.00672 KA relative to UGCAUGU.
For B22, the binding signal was 0.0115 KA relative to UGCAUGU.
B23 was tested, and the binding signal was 0.0051 KA relative to UGCAUGU.
For B24, the binding signal was 0.0198 KA relative to UGCAUGU.
B25 was tested, and the binding signal was 0.0157 KA relative to UGCAUGU.
With B26 the binding signal was 0.00128 KA relative to UGCAUGU.
With B27 the binding signal was 0.0452 KA relative to UGCAUGU.
With B28 the binding signal was 0.012 KA relative to UGCAUGU.
For B29, the binding signal was 0.0158 KA relative to UGCAUGU.
In the case of B30, the binding signal is reported as 0.00858 KA relative to UGCAUGU.
In the case of B31, the binding signal is reported as 0.00337 KA relative to UGCAUGU.
